# Assay results reported in patent US20060052600A1, “Amino-functional chalcones” (priority 2002, published 2006).
# Test system: S. aureus ATCC29213
# Test: Killing curve determination (time-kill curve)
# Text: Williams & Wilkins 1996).
smiles,measurement,value
"CCCCN(CCCC)c1ccc(/C=C/C(=O)c2ccccc2CN2CCN(C)CC2)cc1 [A031, (E)-3-(4-Dibutylamino-phenyl)-1-[2-(4-methyl-piperazin-1-ylmethyl)-phenyl]-propenone]",dependence of the bactericidal action,primarily dependent on the concentration of the test compound
